# Results from the supplement of paper PMC11417369.
# ± gives the standard deviation of the averaged measurements. The list shows a part of the results.
# Tested on: PfAP2-I AP2 domain 3 (GST-tagged)
# Assay: gcPBM binding intensity (ln(normalized median fluorescence intensity)); higher = stronger DNA binding
# Procedure, shortened: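 Binding of GST-tagged P. falciparum DNA-binding domains, expressed in E. coli and used at about 25 μg on average, was carried out for 1 h in 1× PBS containing 1% milk, 0.2 mg/ml BSA, 0.5% salmon testes DNA and 0.03% Triton X-100. The target was an Agilent 4 × 180k array of primer-extended double-stranded 36-bp intergenic genomic probes plus negative controls, read with Alexa488 anti-GST antibody at 488 nm. Binding intensity is the highest Masliner-normalised natural-log median intensity across replicate spots of either probe orientation.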
row,Sequence,gcPBM binding intensity (ln)
1,AAAAAAAAAAAAAAAGCATGCACATATTATTTTTTT [TGCATGCA_site416],8.62 ± 0.67
2,ATTATATTTTGTAAATGTACATTTATATATTTTGTA [XGTACX_site1226],7.68 ± 0.57
3,ATTCATAAACGTGTGTTAATATGAATTTAAACATAA [XGTACX_negctrl_site213],7.57 ± 0.58
4,GTATAAAAAAATAAAAGTACAAAAAAAAAAGACTGA [XGTACX_site186],7.97 ± 0.52
5,AAATAAAAAATATGAACACACATATATAACAAAATA [CACACA_site261],7.74 ± 0.81
6,TTTTTTTTTTTTTTTTTTTTTTTTTTTTTTTTTTTT [CACACA_negctrl_site104],10.4 ± 0.21
7,AGGATTAAAAAAACATGTACGTATTTAAATATATTT [XGTACX_site8774],7.96 ± 0.53
8,TACTGGTATCGATATAGTACATATAATATTATGTTA [XGTACX_site7490],7.62 ± 0.49
9,AATTGAATAAATTAAACATGCACAGATGTTCTATTT [TGCATGCA_site692],7.75 ± 0.67
10,TTTGTGTTTATAAATTGTACAAAGGTGCAAGAAGAA [XGTACX_site2159],11.1 ± 0.87
11,AAAAAAAAAAAAAACACACACACACCCATAAATATA [CACACA_site151],8.38 ± 0.47
12,AGGATATATAAGTATACACACATATTTATATTTATA [CACACA_site6239],7.44 ± 0.55
13,TTTTTTTTTTTTTTTTTTTTCACATGTGTGGAAAAA [GTGCAC_negctrl_site352],8.37 ± 0.94
14,TTAAAATATACATAAACACACACAAAACGTTTAAGA [CACACA_site8267],7.83 ± 0.64
15,AATTTAAAATATATAGTACACACGTGAACACAAATA [CACACA_site416],8.01 ± 0.3
16,TAACAATAACTTTATACACACATAATATATATATAT [CACACA_site3543],9.05 ± 0.15
17,TGTATTTATAATAAAACACACATTTTTAATGTGCTC [CACACA_site4908],7.4 ± 0.4
18,TGTTGTCCTAATTCTACACACAATGGTTTATTAAAA [CACACA_site2648],8.12 ± 0.52
19,CATATACTTCTGTGCACACGAATATTTTTCTTCTTC [CACACA_site1407],10.3 ± 0.3
20,TTTTAACGTAAAACATTGATGATATAAAAAATAGGA [GTGCAC_negctrl_site540],7.92 ± 0.46
21,TATACTCATATTTTTACACACATATTTTTTCATATA [CACACA_site5412],7.88 ± 0.45
22,ATCCACTTTTTGAAGACACACACAAAAAAAAAAAAA [CACACA_site8818],8.04 ± 0.4
23,AATTAGATGGATAAATGTACATAATGTGAATATATT [XGTACX_site86],8.09 ± 0.74

row,Sequence,gcPBM binding intensity (ln)
1,TAAAAATAATTTGCATGTACATAGGTCGATGTATTT [XGTACX_site1357],7.88 ± 0.48
2,TGTAAATTATAACGTGCACACATATTTAAAATGAAA [CACACA_site8915],11.2 ± 0.15
3,AGATATTTATTGAGTGCATGTTATAAAGGGAAAAAA [TGCATGCA_site88],9.04 ± 0.17
4,ATATAGAAAATGCATACACACTTTATAAATATATTT [CACACA_site6553],7.92 ± 0.53
5,TATTTTTATTATATGGTGCATATATACATACATATA,10.7 ± 0.79
6,TTCAAGCCCTTCTGCTTACACACAGTAATTATTGTG [CACACA_site2952],7.74 ± 0.66
7,AAGTGCATATTATTCACACATAATAATTGTATACCT [CACACA_site5965],10.3 ± 0.47
8,AAAAAAAAAAAACACACACACAATAGTATATAAATC [CACACA_site956],7.87 ± 0.61
9,ATATGATCATAAAACACACACACAAAAAAAAAAAAA [CACACA_site1806],7.95 ± 0.75
10,CAAATAAAAACAAAACGTACGAATAAATTATTGTTA [XGTACX_site5136],7.54 ± 0.47
11,CACATATAAATATTAACACACATAATGAATTATATA [CACACA_site2741],7.83 ± 0.28
12,TATTTGATCTAAAGAGCATGCAAAAACGAACAAGAT [TGCATGCA_site136],8.54 ± 0.64
13,ATATCGTTATTTTTATGTACTAAAATATTTAATTAT [XGTACX_site3516],8.04 ± 0.53
14,TTTTTTTTTTATTGTACATGCAAAAAATTCCACACA [TGCATGCA_site279],8.31 ± 0.32
15,AGCATATTATTTTAGGTGCACTTGAAATGTGTTAAC,10.7 ± 0.35
16,TTTAAATAAAATATTACACACTTAGAAAGATATATA [CACACA_site7684],7.41 ± 0.48
17,TACACCCACCCACATACACACACATACACATATATA [CACACA_site8503],8.35 ± 0.22
18,CCACTTAAAATAAAAAGTACATACAGGTGTTATACA [XGTACX_site8124],7.88 ± 0.34
19,AAATTGGTTCATCAATGTACATGTAAAATAAATCAA [XGTACX_site4795],7.87 ± 0.41
20,TAATGAGGAAATACAGCACACGTTATTACACTTTTC [CACACA_site5399],8.49 ± 0.52
21,AATAATGTTATAAATTGTACGTGTATTATTCATTAC [XGTACX_site894],7.84 ± 0.35
22,TATATTTATCCATACAAGAAAAAAAAAAAAAAAATA [CACACA_negctrl_site1328],7.44 ± 0.35
